# From the supplement of paper PMC8728848
# The list shows a part of the results.
# What was measured:
# Assay in all cases: glycan array binding signal (z-score within array); higher = stronger binding
# Conditions in all cases: glycan notation: IUPAC condensed, linker removed
# [1] = biological target: Fuc(a1-2)Gal(b1-4)[Fuc(a1-3)]GlcNAc
# Summary of the method: (§1)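 Glycan array data were curated from 3228 arrays in the Consortium for Functional Glycomics database and kept only where the protein sequence was available. Glycan names were converted to IUPAC-condensed notation, and columns mapping to the same glycan were averaged. The binding signal is a within-array Z-score, averaged across arrays of the same protein sequence at different concentrations or buffers and across linkers. Negative Z-scores can be read as non-binding.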
# [2] = biological target: Fuc(a1-2)Gal(b1-4)[Fuc(a1-3)]GlcNAc(b1-2)Man(a1-3)[Fuc(a1-2)Gal(b1-4)[Fuc(a1-3)]GlcNAc(b1-2)Man(a1-6)]Man(b1-4)GlcNAc(b1-4)[Fuc(a1-6)]GlcNAc
# Summary of the method: as §1
# [3] = biological target: Fuc(a1-2)Gal(b1-4)[Fuc(a1-3)]GlcNAc(b1-2)[Fuc(a1-2)Gal(b1-4)[Fuc(a1-3)]GlcNAc(b1-4)]Man(a1-3)[Fuc(a1-2)Gal(b1-4)[Fuc(a1-3)]GlcNAc(b1-2)Man(a1-6)]Man(b1-4)GlcNAc(b1-4)GlcNAc
# Summary of the method: as §1
# [4] = biological target: Fuc(a1-2)Gal(b1-4)[Fuc(a1-3)]GlcNAc(b1-3)Gal(b1-4)[Fuc(a1-3)]GlcNAc
# Summary of the method: as §1
# [5] = biological target: Fuc(a1-2)Gal(b1-4)[Fuc(a1-3)]GlcNAc(b1-3)Gal(b1-4)[Fuc(a1-3)]GlcNAc(b1-3)Gal(b1-4)[Fuc(a1-3)]GlcNAc
# Summary of the method: as §1
# [6] = biological target: Fuc(a1-2)Gal(b1-4)[Fuc(a1-3)]GlcNAc(b1-3)GalNAc
# Summary of the method: as §1
# [7] = biological target: Fuc(a1-2)Gal(b1-4)[Fuc(a1-3)]GlcNAc(b1-3)[Neu5Ac(a2-6)Gal(b1-4)GlcNAc(b1-6)]Gal(b1-4)Glc
# Summary of the method: as §1
# [8] = biological target: Fuc(a1-2)Gal3S(b1-4)GlcNAc
# Summary of the method: as §1
# [9] = biological target: Fuc(a1-2)Gal6S(b1-3)GlcNAc
# Summary of the method: as §1
# [10] = biological target: Fuc(a1-2)Gal6S(b1-3)GlcNAc6S
# Summary of the method: as §1
# [11] = biological target: Fuc(a1-2)Gal6S(b1-4)Glc
# Summary of the method: as §1
# [12] = biological target: Fuc(a1-2)Gal6S(b1-4)Glc6S
# Summary of the method: as §1
# [13] = biological target: Fuc(a1-2)[Gal(a1-3)]Gal
# Summary of the method: as §1
# [14] = biological target: Fuc(a1-2)[Gal(a1-3)]Gal(b1-3)GalNAc
# Summary of the method: as §1
# [15] = biological target: Fuc(a1-2)[Gal(a1-3)]Gal(b1-3)GalNAc(b1-3)Gal(a1-4)Gal(b1-4)Glc
# Summary of the method: as §1
# [16] = biological target: Fuc(a1-2)[Gal(a1-3)]Gal(b1-3)GlcNAc
# Summary of the method: as §1
# [17] = biological target: Fuc(a1-2)[Gal(a1-3)]Gal(b1-3)GlcNAc(b1-2)Man(a1-3)[Fuc(a1-2)[Gal(a1-3)]Gal(b1-3)GlcNAc(b1-2)Man(a1-6)]Man(b1-4)GlcNAc(b1-4)GlcNAc
# Summary of the method: as §1
# [18] = biological target: Fuc(a1-2)[Gal(a1-3)]Gal(b1-3)GlcNAc(b1-2)Man(a1-3)[Fuc(a1-2)[Gal(a1-3)]Gal(b1-3)GlcNAc(b1-2)Man(a1-6)]Man(b1-4)GlcNAc(b1-4)[Fuc(a1-6)]GlcNAc
# Summary of the method: as §1
# [19] = biological target: Fuc(a1-2)[Gal(a1-3)]Gal(b1-3)GlcNAc(b1-3)GalNAc
# Summary of the method: as §1
# [20] = biological target: Fuc(a1-2)[Gal(a1-3)]Gal(b1-3)GlcNAc(b1-6)GalNAc
# Summary of the method: as §1
# [21] = biological target: Fuc(a1-2)[Gal(a1-3)]Gal(b1-4)Glc
# Summary of the method: as §1
# [22] = biological target: Fuc(a1-2)[Gal(a1-3)]Gal(b1-4)GlcNAc
# Summary of the method: as §1
# [23] = biological target: Fuc(a1-2)[Gal(a1-3)]Gal(b1-4)GlcNAc(b1-2)Man
# Summary of the method: as §1
# [24] = biological target: Fuc(a1-2)[Gal(a1-3)]Gal(b1-4)GlcNAc(b1-2)Man(a1-3)[Fuc(a1-2)[Gal(a1-3)]Gal(b1-4)GlcNAc(b1-2)Man(a1-6)]Man(b1-4)GlcNAc(b1-4)GlcNAc
# Summary of the method: as §1
# [25] = biological target: Fuc(a1-2)[Gal(a1-3)]Gal(b1-4)GlcNAc(b1-2)Man(a1-3)[Fuc(a1-2)[Gal(a1-3)]Gal(b1-4)GlcNAc(b1-2)Man(a1-6)]Man(b1-4)GlcNAc(b1-4)[Fuc(a1-6)]GlcNAc
# Summary of the method: as §1
# [26] = biological target: Fuc(a1-2)[Gal(a1-3)]Gal(b1-4)GlcNAc(b1-3)GalNAc
# Summary of the method: as §1
# [27] = biological target: Fuc(a1-2)[Gal(a1-3)]Gal(b1-4)GlcNAc(b1-3)[Fuc(a1-2)[Gal(a1-3)]Gal(b1-4)GlcNAc(b1-6)]GalNAc
# Summary of the method: as §1
# [28] = biological target: Fuc(a1-2)[Gal(a1-3)]Gal(b1-4)GlcNAc(b1-6)GalNAc
# Summary of the method: as §1
# [29] = biological target: Fuc(a1-2)[Gal(a1-3)]Gal(b1-4)[Fuc(a1-3)]Glc
# Summary of the method: as §1
# [30] = biological target: Fuc(a1-2)[Gal(a1-3)]Gal(b1-4)[Fuc(a1-3)]GlcNAc
# Summary of the method: as §1
# [31] = biological target: Fuc(a1-2)[Gal(a1-3)]Gal(b1-4)[Fuc(a1-3)]GlcNAc(b1-3)GalNAc
# Summary of the method: as §1
# [32] = biological target: Fuc(a1-2)[Gal(a1-4)]Gal(b1-4)GlcNAc
# Summary of the method: as §1
# [33] = biological target: Fuc(a1-2)[GalNAc(a1-3)]Gal
# Summary of the method: as §1
# [34] = biological target: Fuc(a1-2)[GalNAc(a1-3)]Gal(b1-3)GalNAc(a1-3)[Fuc(a1-2)]Gal(b1-4)GlcNAc
# Summary of the method: as §1
# [35] = biological target: Fuc(a1-2)[GalNAc(a1-3)]Gal(b1-3)GalNAc(b1-3)Gal(a1-4)Gal(b1-4)Glc
# Summary of the method: as §1
# [36] = biological target: Fuc(a1-2)[GalNAc(a1-3)]Gal(b1-3)GlcNAc
# Summary of the method: as §1
# [37] = biological target: Fuc(a1-2)[GalNAc(a1-3)]Gal(b1-3)GlcNAc(b1-2)Man(a1-3)[Fuc(a1-2)[GalNAc(a1-3)]Gal(b1-3)GlcNAc(b1-2)Man(a1-6)]Man(b1-4)GlcNAc(b1-4)GlcNAc
# Summary of the method: as §1
# [38] = biological target: Fuc(a1-2)[GalNAc(a1-3)]Gal(b1-3)GlcNAc(b1-2)Man(a1-3)[Fuc(a1-2)[GalNAc(a1-3)]Gal(b1-3)GlcNAc(b1-2)Man(a1-6)]Man(b1-4)GlcNAc(b1-4)[Fuc(a1-6)]GlcNAc
# Summary of the method: as §1
binder,measurement,setting,value
Epa1 (Candida glabrata) (protein) MGSSHHHHHHSSGLVPRGSHMTSSNDISLASKDPTTFPLGCSPDITTPKKGLSMELYSYDFRKKGSYPCWDAAYLDPNYPRTGYKSHRLLAKVDGVTGNINFYYHATKGCTPQLGHLPASYNYPKPLTMTNFTMLLYGYFRPKVTGFHTFTISADDLLFVNFGAGNAFDCCRRDSSADHFGNYQAYAIWGSKTAKDELTVHLDAGVYYPIRLFYNNREYDGALSFTFKTESNENTVSDFSEYFFSLDDTEEGCPGLISYD,glycan array binding signal (z-score),[1],-0.386
same,glycan array binding signal (z-score),[2],-0.222
same,glycan array binding signal (z-score),[3],-0.108
same,glycan array binding signal (z-score),[4],-0.299
same,glycan array binding signal (z-score),[5],-0.314
same,glycan array binding signal (z-score),[6],-0.174
same,glycan array binding signal (z-score),[7],-0.168
same,glycan array binding signal (z-score),[8],-0.205
same,glycan array binding signal (z-score),[9],-0.323
same,glycan array binding signal (z-score),[10],-0.286
same,glycan array binding signal (z-score),[11],-0.291
same,glycan array binding signal (z-score),[12],-0.289
same,glycan array binding signal (z-score),[13],-0.213
same,glycan array binding signal (z-score),[14],-0.268
same,glycan array binding signal (z-score),[15],-0.306
same,glycan array binding signal (z-score),[16],-0.295
same,glycan array binding signal (z-score),[17],-0.325
same,glycan array binding signal (z-score),[18],-0.305
same,glycan array binding signal (z-score),[19],-0.308
same,glycan array binding signal (z-score),[20],-0.338
same,glycan array binding signal (z-score),[21],-0.282
same,glycan array binding signal (z-score),[22],-0.081
same,glycan array binding signal (z-score),[23],-0.241
same,glycan array binding signal (z-score),[24],-0.31
same,glycan array binding signal (z-score),[25],-0.32
same,glycan array binding signal (z-score),[26],-0.289
same,glycan array binding signal (z-score),[27],-0.235
same,glycan array binding signal (z-score),[28],-0.276
same,glycan array binding signal (z-score),[29],-0.313
same,glycan array binding signal (z-score),[30],-0.252
same,glycan array binding signal (z-score),[31],-0.248
same,glycan array binding signal (z-score),[32],-0.091
same,glycan array binding signal (z-score),[33],-0.303
same,glycan array binding signal (z-score),[34],-0.289
same,glycan array binding signal (z-score),[35],-0.306
same,glycan array binding signal (z-score),[36],-0.284
same,glycan array binding signal (z-score),[37],-0.273
same,glycan array binding signal (z-score),[38],-0.272
